Reference: the CheMixHub viscosity set
± gives the uncertainty stated by the source. Further values from the same series stand in other lists.

Experiment: xn = mol fraction of the nth substance listed
Conditions: 101 kPa

In the case of CC(C)(C)O + O, the viscosity (308 K, x1 = 0.97) is reported as 2.592 ± 0.025 mPa·s, the viscosity (308 K, x1 = 0.98) is reported as 2.597 ± 0.025 mPa·s and the viscosity (308 K, x2 = 0.01) is reported as 2.601 ± 0.025 mPa·s. The viscosity (308.15 K, x1 = 0.098) was 2.148 ± 0.019 mPa·s, the viscosity (308.15 K, x1 = 0.1) was 2.132 ± 0.032 mPa·s and the viscosity (308.15 K, x1 = 0.2001) was 2.903 ± 0.044 mPa·s. For the same compound, the viscosity (308.15 K, x1 = 0.217) was 2.964 ± 0.025 mPa·s, the viscosity (308.15 K, x1 = 0.3) was 3.186 ± 0.048 mPa·s and the viscosity (308.15 K, x1 = 0.301) was 3.21 ± 0.027 mPa·s. The viscosity (308.15 K, x1 = 0.3997) was 3.221 ± 0.049 mPa·s, the viscosity (308.15 K, x1 = 0.445) was 3.185 ± 0.026 mPa·s and the viscosity (308.15 K, x1 = 0.5) was 3.112 ± 0.025 mPa·s. It also gave a viscosity (308.15 K, x1 = 0.5001) of 3.136 ± 0.048 mPa·s, a viscosity (308.15 K, x1 = 0.592) of 2.955 ± 0.023 mPa·s and a viscosity (308.15 K, x1 = 0.5989) of 3.014 ± 0.046 mPa·s. It also gave a viscosity (308.15 K, x1 = 0.694) of 2.841 ± 0.022 mPa·s, a viscosity (308.15 K, x1 = 0.6995) of 2.881 ± 0.045 mPa·s and a viscosity (308.15 K, x1 = 0.79) of 2.705 ± 0.021 mPa·s. It also gave a viscosity (308.15 K, x1 = 0.7978) of 2.763 ± 0.043 mPa·s, a viscosity (308.15 K, x1 = 0.8976) of 2.682 ± 0.043 mPa·s and a viscosity (308.15 K, x1 = 0.905) of 2.633 ± 0.02 mPa·s. The viscosity (313.15 K, x1 = 0.098) was 1.835 ± 0.016 mPa·s, the viscosity (313.15 K, x1 = 0.1) was 1.79 ± 0.028 mPa·s and the viscosity (313.15 K, x1 = 0.2001) was 2.392 ± 0.036 mPa·s. It also gave a viscosity (313.15 K, x1 = 0.217) of 2.478 ± 0.021 mPa·s, a viscosity (313.15 K, x1 = 0.3) of 2.587 ± 0.039 mPa·s and a viscosity (313.15 K, x1 = 0.301) of 2.566 ± 0.021 mPa·s. The viscosity (313.15 K, x1 = 0.3997) was 2.633 ± 0.04 mPa·s, the viscosity (313.15 K, x1 = 0.445) was 2.626 ± 0.021 mPa·s and the viscosity (313.15 K, x1 = 0.5) was 2.568 ± 0.021 mPa·s. The viscosity (313.15 K, x1 = 0.5001) was 2.562 ± 0.039 mPa·s, the viscosity (313.15 K, x1 = 0.592) was 2.431 ± 0.019 mPa·s and the viscosity (313.15 K, x1 = 0.5989) was 2.459 ± 0.038 mPa·s. For the same compound, the viscosity (313.15 K, x1 = 0.6) was 2.409 ± 0.041 mPa·s, the viscosity (313.15 K, x1 = 0.694) was 2.327 ± 0.018 mPa·s and the viscosity (313.15 K, x1 = 0.6995) was 2.346 ± 0.037 mPa·s. For the same compound, the viscosity (313.15 K, x1 = 0.7) was 2.29 ± 0.044 mPa·s, the viscosity (313.15 K, x1 = 0.79) was 2.215 ± 0.017 mPa·s and the viscosity (313.15 K, x1 = 0.7978) was 2.247 ± 0.036 mPa·s. It also gave a viscosity (313.15 K, x1 = 0.8) of 2.188 ± 0.047 mPa·s, a viscosity (313.15 K, x1 = 0.8976) of 2.168 ± 0.035 mPa·s and a viscosity (313.15 K, x1 = 0.9) of 2.12 ± 0.05 mPa·s. It also gave a viscosity (313.15 K, x1 = 0.905) of 2.141 ± 0.017 mPa·s, a viscosity (313.15 K, x1 = 0.95) of 2.087 ± 0.051 mPa·s and a viscosity (318 K, x1 = 0.001) of 0.606 ± 0.011 mPa·s. It also gave a viscosity (318 K, x1 = 0.005) of 0.644 ± 0.011 mPa·s, a viscosity (318 K, x1 = 0.01) of 0.711 ± 0.012 mPa·s and a viscosity (318 K, x1 = 0.02) of 0.804 ± 0.012 mPa·s. The viscosity (318 K, x1 = 0.03) was 0.916 ± 0.012 mPa·s, the viscosity (318 K, x1 = 0.04) was 1.038 ± 0.013 mPa·s and the viscosity (318 K, x1 = 0.05) was 1.153 ± 0.014 mPa·s. It also gave a viscosity (318 K, x1 = 0.06) of 1.234 ± 0.014 mPa·s, a viscosity (318 K, x1 = 0.08) of 1.43 ± 0.015 mPa·s and a viscosity (318 K, x1 = 0.1) of 1.602 ± 0.017 mPa·s. The viscosity (318 K, x1 = 0.15) was 1.935 ± 0.019 mPa·s, the viscosity (318 K, x1 = 0.2) was 2.091 ± 0.02 mPa·s and the viscosity (318 K, x1 = 0.25) was 2.19 ± 0.021 mPa·s. For the same compound, the viscosity (318 K, x1 = 0.3) was 2.235 ± 0.021 mPa·s, the viscosity (318 K, x1 = 0.35) was 2.233 ± 0.021 mPa·s and the viscosity (318 K, x1 = 0.4) was 2.224 ± 0.021 mPa·s. It also gave a viscosity (318 K, x1 = 0.5) of 2.139 ± 0.021 mPa·s, a viscosity (318 K, x1 = 0.6) of 2.032 ± 0.02 mPa·s and a viscosity (318 K, x1 = 0.7) of 1.926 ± 0.019 mPa·s. It also gave a viscosity (318 K, x1 = 0.8) of 1.832 ± 0.019 mPa·s, a viscosity (318 K, x1 = 0.85) of 1.803 ± 0.019 mPa·s and a viscosity (318 K, x1 = 0.88) of 1.771 ± 0.018 mPa·s. For the same compound, the viscosity (318 K, x1 = 0.9) was 1.758 ± 0.018 mPa·s, the viscosity (318 K, x1 = 0.92) was 1.747 ± 0.018 mPa·s and the viscosity (318 K, x1 = 0.95) was 1.728 ± 0.018 mPa·s. It also gave a viscosity (318 K, x1 = 0.97) of 1.719 ± 0.018 mPa·s, a viscosity (318 K, x1 = 0.98) of 1.71 ± 0.018 mPa·s and a viscosity (318 K, x2 = 0.01) of 1.706 ± 0.018 mPa·s. It also gave a viscosity (318.15 K, x1 = 0.098) of 1.57 ± 0.014 mPa·s, a viscosity (318.15 K, x1 = 0.1) of 1.528 ± 0.025 mPa·s and a viscosity (318.15 K, x1 = 0.2001) of 2 ± 0.031 mPa·s. For the same compound, the viscosity (318.15 K, x1 = 0.217) was 2.1 ± 0.018 mPa·s, the viscosity (318.15 K, x1 = 0.3) was 2.185 ± 0.034 mPa·s and the viscosity (318.15 K, x1 = 0.301) was 2.259 ± 0.019 mPa·s. The viscosity (318.15 K, x1 = 0.3997) was 2.185 ± 0.034 mPa·s, the viscosity (318.15 K, x1 = 0.445) was 2.204 ± 0.018 mPa·s and the viscosity (318.15 K, x1 = 0.5) was 2.156 ± 0.017 mPa·s. It also gave a viscosity (318.15 K, x1 = 0.5001) of 2.121 ± 0.033 mPa·s, a viscosity (318.15 K, x1 = 0.592) of 2.034 ± 0.016 mPa·s and a viscosity (318.15 K, x1 = 0.5989) of 2.03 ± 0.032 mPa·s. For the same compound, the viscosity (318.15 K, x1 = 0.694) was 1.929 ± 0.015 mPa·s, the viscosity (318.15 K, x1 = 0.6995) was 1.937 ± 0.031 mPa·s and the viscosity (318.15 K, x1 = 0.79) was 1.834 ± 0.014 mPa·s. It also gave a viscosity (318.15 K, x1 = 0.7978) of 1.848 ± 0.03 mPa·s, a viscosity (318.15 K, x1 = 0.8976) of 1.777 ± 0.029 mPa·s and a viscosity (318.15 K, x1 = 0.905) of 1.777 ± 0.014 mPa·s. It also gave a viscosity (323.15 K, x1 = 0.098) of 1.364 ± 0.012 mPa·s, a viscosity (323.15 K, x1 = 0.217) of 1.796 ± 0.016 mPa·s and a viscosity (323.15 K, x1 = 0.301) of 1.927 ± 0.017 mPa·s. It also gave a viscosity (323.15 K, x1 = 0.445) of 1.856 ± 0.015 mPa·s, a viscosity (323.15 K, x1 = 0.5) of 1.813 ± 0.015 mPa·s and a viscosity (323.15 K, x1 = 0.592) of 1.713 ± 0.014 mPa·s. The viscosity (323.15 K, x1 = 0.694) was 1.623 ± 0.013 mPa·s, the viscosity (323.15 K, x1 = 0.79) was 1.54 ± 0.012 mPa·s and the viscosity (323.15 K, x1 = 0.905) was 1.482 ± 0.012 mPa·s.
